Measured values reported in PubChem BioAssay AID485294 (National Center for Advancing Translational Sciences (NCATS), 2010).
In all, about 370,000 compounds went through this assay and about 150 (0.041%) were called active. Inconclusive results, whose numbers are uncertain, are shown with a selection of clear calls. Calls come from the whole dose curve; as a rule, active = well fitted inhibition curve with a large enough effect; inconclusive = small, poorly fitted or top-dose-only effect; inactive = flat fitted curve, though single readings scatter. Potencies of inconclusive entries are left out as doubtful fits.

Target: Beta-lactamase (Escherichia coli (strain K12)) (UniProt P00811)
Experiment: qHTS Inhibitors of AmpC Beta-Lactamase (assay with detergent); note: nearly all actives have a fitted effect of over 25% in size;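 for activity change, negative = inhibition: 0% = no-compound wells and -100% = no-enzyme wells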
Conditions: AmpC hydrolysis of nitrocefin, absorbance 480 nm, 0.01% Triton; activity change, negative = inhibition: at 114 µM (top of the series)
Outline: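 20 mM phosphate pH 7.0 + 0.01% (detergent screen) or 0.0001% Triton X-100; 5.3 nM AmpC reagent; cpd preinc 15 min RT; nitrocefin (800 uM stock) to start; A480 q20 s × 4 min; Activity was normalised to no-enzyme and no-compound control wells.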
Potency is the fitted concentration of half-maximal effect; tags give direction and shape of the fitted curve.

Chain of UniProt P00811 (P00811 whole entry, looked up): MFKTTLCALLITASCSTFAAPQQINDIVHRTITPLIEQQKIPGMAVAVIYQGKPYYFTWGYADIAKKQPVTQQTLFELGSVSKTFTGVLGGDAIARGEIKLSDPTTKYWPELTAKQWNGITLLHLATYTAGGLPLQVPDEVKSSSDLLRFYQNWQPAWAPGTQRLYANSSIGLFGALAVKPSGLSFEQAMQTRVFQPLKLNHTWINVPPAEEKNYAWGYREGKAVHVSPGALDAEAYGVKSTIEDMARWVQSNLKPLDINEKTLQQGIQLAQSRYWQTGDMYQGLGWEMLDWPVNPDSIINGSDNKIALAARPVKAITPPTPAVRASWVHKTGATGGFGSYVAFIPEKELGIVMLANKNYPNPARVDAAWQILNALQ

SMILES	Potency	activity change, negative = inhibition
O=C1Nc2ccccc2C(O)(C(=O)NCc2ccco2)N1c1ccc(Cl)c(Cl)c1 (stereo not drawn)	inconclusive [inhibitor, full curve, poor fit]	
COc1ccc(Cl)cc1S(=O)(=O)N(C)CC(=O)NCCCn1ccnc1		inactive: -1.38%
O=C(CSc1oc(-c2ccc(F)cc2)nc1S(=O)(=O)c1ccccc1)NCC1CCCO1 (stereo not drawn)	inconclusive [inhibitor, partial curve]	
CC1CCN(C2=C(NS(=O)(=O)c3ccc(Cl)cc3)C(=O)c3ccccc3C2=O)CC1		inactive: -1.27%
CCOC(=O)Cc1cc(=O)n(-c2nc3ccccc3s2)[nH]1	inconclusive [inhibitor, full curve, poor fit]	
Cc1cccc(CNC(=O)c2cccc(NC(=O)N3CCSc4ncccc43)c2)c1		inactive: 11.3%
CCC(=O)c1ccc(OCC(=O)OCC(=O)N2c3ccccc3CC2C)cc1 (stereo not drawn)	inconclusive [inhibitor, partial curve, poor fit]	
CC(C)(C)Nc1nc(-c2ccc3c(c2)CCN3C(=O)C2CC2)cs1		inactive: 5.08%
CCC(=O)N(CC)c1nc(-c2cc(OC)ccc2OC)cs1		inactive: -17.9%
CCCCNC(=O)NC1CCCC1	inconclusive [inhibitor, full curve, poor fit]	
O=C(O)CC(O)C(=O)O (stereo not drawn)	inconclusive [inhibitor, single point]	
O=C(Cn1ncc2c3ccccc3n(Cc3ccc(F)cc3)c2c1=O)N1CCC2(CC1)OCCO2		inactive: -7.98%
Cc1ccccc1-n1c(SCC(=O)NC2CCS(=O)(=O)C2)nc2ccccc2c1=O (stereo not drawn)	inconclusive [inhibitor, partial curve, poor fit]	
COc1ccccc1OCC(=O)NN1Cc2ccccc2C1=N	inconclusive [inhibitor, single point]	
Cc1ccc2cc(CN(Cc3nnnn3C3CCCCC3)CC3CCCO3)c(=O)[nH]c2c1 (stereo not drawn)	inconclusive [inhibitor, full curve, poor fit]	
CCCCNC(=O)c1nn(-c2ccc(C)cc2)c(=O)c2c1c1ccccc1n2C		inactive: -3.19%
CCc1ccc(C(=O)CSC2=C(C#N)C(c3ccco3)C(C(C)=O)=C(C)N2)cc1 (stereo not drawn)	inconclusive [inhibitor, full curve, poor fit]	
CCOC(=O)c1cnc2ccc(OC)cc2c1NCCc1ccc(OC)c(OC)c1	inactive	
CNc1c(NC(=O)c2cc(OC)cc(OC)c2)c(=O)oc2ccccc12		inactive: 12.5%
CC(=O)c1nc(N2C(=O)CC(Cc3cc(C)cc(C)c3)C2=O)sc1C (stereo not drawn)	inconclusive [inhibitor, full curve]	
COc1cccc(OC)c1C(=O)Nc1ccc(C)cc1C(=O)c1ccccc1	inconclusive [inhibitor, partial curve, poor fit]	
Cc1ccc(N2C(=O)CC(Sc3nc(C)cc(C)n3)C2=O)cc1 (stereo not drawn)		inactive: 2.2%

SMILES	Potency	activity change, negative = inhibition
CC1CCN(S(=O)(=O)c2ccc3c(c2)oc(=O)n3CC(=O)NC(C)c2ccccc2)CC1 (stereo not drawn)		inactive: -4.34%
Cc1ccc(C(=O)Nc2ncc(Cc3ccc(SC(F)F)cc3)s2)cc1	inconclusive [inhibitor, partial curve, poor fit]	
Cc1cc(C)nc(-n2nc(C)cc2NC(=O)CN2CCc3ccccc3C2)n1	inconclusive [inhibitor, full curve, poor fit]	
Cc1ccc(-c2nc(CS(=O)(=O)CC(=O)N3CCN(c4cccc(C)c4C)CC3)c(C)o2)cc1		inactive: -9.36%
O=C(c1cc2cc(Cl)cc(Cl)c2oc1=O)N1CCOCC1	inconclusive [inhibitor, full curve, poor fit]	
O=C(NCCCn1ccnc1)/C(=C\c1cccs1)NC(=O)c1ccccc1	inconclusive [inhibitor, full curve]	
O=C(CN(c1ccc(Cl)c(C(F)(F)F)c1)S(=O)(=O)c1ccccc1)N/N=C/c1cccc2c1OCCO2	inconclusive [inhibitor, single point]	
CCCCN1C(=O)C(NC(=O)C2CC2)(C(F)(F)F)C2=C1CC(C)(C)CC2=O (stereo not drawn)	inconclusive [inhibitor, partial curve]	
CC(=O)N1CCN(C(=S)c2ccc([N+](=O)[O-])cc2)CC1	inconclusive [inhibitor, full curve, poor fit]	
CCSc1ccc(-c2nn(-c3ccccc3)cc2/C=C(/C#N)C(=O)NCCCOC)cc1		inactive: -7.05%
O=C(c1ccc(Br)cc1)N1CCN(Cc2ccccc2)CC1	inconclusive [inhibitor, full curve, poor fit]	
COc1ccc(C2c3ccc(O)cc3Oc3ncn(CCN4CCOCC4)c(=N)c32)cc1 (stereo not drawn)		inactive: 0.692%
CCS(=O)(=O)/N=C(\N)c1ccccc1	inconclusive [inhibitor, single point]	
CCCCn1c(=O)[nH]c(=O)c2c1nc(-c1ccc(C)c([N+](=O)[O-])c1)n2CC	inconclusive [inhibitor, full curve, poor fit]	
CC(Cc1ccccc1)NC(=O)CCCCC(=O)NC(C)Cc1ccccc1 (stereo not drawn)	inconclusive [inhibitor, full curve, poor fit]	
CC(C)(C)n1ncc2c(=O)n(CC(=O)N3CCCCCC3)cnc21	inconclusive [inhibitor, partial curve, poor fit]	
CC(OCC(O)CN(C)CCOc1ccccc1)c1ccc(Cl)cc1 (stereo not drawn)	inconclusive [inhibitor, partial curve, poor fit]	
COc1ccc(OC)c(CNC(=O)Cc2c(C(=O)O)[nH]c3ccccc23)c1	inconclusive [inhibitor, partial curve]	
Cn1nc(OC(=O)Nc2ccc(Cl)cc2)cc1C(F)(F)F		inactive: 2.89%
C[C@@H]1C2C[C@@]34COC(=O)C3=CC=C[C@H]4[C@@]13C[C@H](c1ccoc1)O[C@@H]3O2	inconclusive [inhibitor, partial curve]	
Cc1ccc2c(c1)C(c1ccccc1)N(C(=O)c1ccccc1F)CC(=O)N2 (stereo not drawn)	inconclusive [inhibitor, single point]	
